The text below walks through data of the supplement of paper PMC11417369.

± gives the standard deviation of the averaged measurements. The list shows a part of the results.

In the assay the test system is PfAP2-G AP2 domain (GST-tagged). The experiment in a line: gcPBM binding intensity (ln(normalized median fluorescence intensity)); higher = stronger DNA binding. Put shortly:
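Alexa488 anti-GST antibody, scanned at 488 nm, detected GST-tagged P. falciparum DNA-binding domains that had been expressed in E. coli and incubated for 1 h on an Agilent 4 × 180k array. The array carried primer-extended double-stranded 36-bp intergenic genomic probes and negative controls. Binding intensity is the highest Masliner-normalised natural-log median intensity across replicate spots of either orientation of each probe.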
In the case of “TATGCAAGGAACCACACACACACACCGAAATGTATA [CACACA_site4573]”, the “gcPBM binding intensity (ln)” value worked out at 10.3 ± 0.26.

For “AGTTTATTTATATACACACACATATAAATATTATAG [CACACA_site6522]”, the “gcPBM binding intensity (ln)” value was determined as 10.03 ± 0.064.

Consider “ATATATATTTATGTATCACACACAAAAAAAAAAAAT [CACACA_site7973]”, for which the “gcPBM binding intensity (ln)” value was 10.1 ± 0.26.

For “TATATATATATATATTGTACTTATGTTTATATTCAT [XGTACX_site6258]”, the “gcPBM binding intensity (ln)” value was determined as 11.1 ± 0.63.

In the case of “TTCTTTAAAATATTATGTACACATTGCGAACAGTTT [XGTACX_site5418]”, the “gcPBM binding intensity (ln)” value turned out to be 11.7 ± 1.

“ACTATATAATATAATATATTATAATATATTATATTA [GTGCAC_negctrl_site140]”: the “gcPBM binding intensity (ln)” value was determined as 9.77 ± 0.15.

Regarding “ATAAACTGAGTGGTTACACACAAAACCAATAACTTT [CACACA_site7601]”, the “gcPBM binding intensity (ln)” value worked out at 10.28 ± 0.092.

For “ATATAGACACACACATGTACATATGCCAACGTGATA [XGTACX_site3828]”, the “gcPBM binding intensity (ln)” value turned out to be 11.2 ± 0.95.

For the sequence “TTCTTAAAATATGAAAGTACATAGGCATTATATATT [XGTACX_site8400]”, the “gcPBM binding intensity (ln)” value stood at 11 ± 0.72.

As to “ATGATCATAAAACACACACACAAAAAAAAAAAAAAA [CACACA_site1805]”, the “gcPBM binding intensity (ln)” value worked out at 9.71 ± 0.21.

Consider “ATTAATTTTATATATGCACACAAAATATGTTCATAT [CACACA_site9350]”, for which the “gcPBM binding intensity (ln)” value turned out to be 10.2 ± 0.25.

As to “TTATAATAAACCTATACACACATAAATAAATAAATA [CACACA_site2581]”, the “gcPBM binding intensity (ln)” value turned out to be 9.945 ± 0.007.

As for “TATGTATATATTTGTGCACACCAAAGTTTGATTTTA [CACACA_site1861]”, the “gcPBM binding intensity (ln)” value is 10.5 ± 0.22.

With “AATAATATTTATTTTTGTACATATGTGCATTATAAA [XGTACX_site3682]”, the “gcPBM binding intensity (ln)” value is 11 ± 0.49.

Regarding “TCAAGAATTATATAAACACACATACATACACCCATA [CACACA_site5126]”, the “gcPBM binding intensity (ln)” value was found to be 10.4 ± 0.42.

“TTATAAAAGGACTTCTGTACGAATTTTTTTTAATAA [XGTACX_site1411]”: the “gcPBM binding intensity (ln)” value amounted to 11.2 ± 0.94.

“GAACGAAACTTTCTTACACACATTGAAATTTTTTTC [CACACA_site1779]”: the “gcPBM binding intensity (ln)” value was 9.965 ± 0.007.

Turning to “TACTCACAATGGGGTCTACAAAAAAAAAAAAATAAA [XGTACX_negctrl_site229]”, the “gcPBM binding intensity (ln)” value was found to be 10.4 ± 0.64.

In the case of “CCATGCATACATTCTTGTACACATTTCTATTATGAG [XGTACX_site39]”, the “gcPBM binding intensity (ln)” value is 11.3 ± 0.79.

In the case of “GAATTCAACAAAAAAAGTACTCTACATAAAATAATG [XGTACX_site175]”, the “gcPBM binding intensity (ln)” value is 11.4 ± 0.79.

For the sequence “ATATTGATGTATTGTTTTTTTTTTTTCTTTTTTTTT [CACACA_negctrl_site1238]”, the “gcPBM binding intensity (ln)” value was 9.81 ± 0.16.

Regarding “AAATACTGTAAAAAAGCATGCCACTAATAATAATTA [TGCATGCA_site759]”, the “gcPBM binding intensity (ln)” value was 10.

As for “TTGTACATCTTTTGCACACGTAATGTTATTATAATA [CACACA_site1258]”, the “gcPBM binding intensity (ln)” value turned out to be 11.3 ± 0.92.

With “TTATAACTTTTGAGCACACACAAGCATATAAATATA [CACACA_site6933]”, the “gcPBM binding intensity (ln)” value turned out to be 10.2 ± 0.16.

For TCATTTTTTTGTTTGGTGCGACTTGAAAATTTGATT, the “gcPBM binding intensity (ln)” value turned out to be 10.4 ± 0.28.

In the case of “CTCAATATTATTACTACACACAAATTAAAATTTTCC [CACACA_site4203]”, the “gcPBM binding intensity (ln)” value was 10.07 ± 0.085.

For the sequence “CATACATTTAAAAAGTGTACGTATATGAAAAAAGGA [XGTACX_site6512]”, the “gcPBM binding intensity (ln)” value was found to be 11.7 ± 1.1.

Turning to “ACCTTTGTAGTTGGTCCACACACATATATGGAAGAA [CACACA_site8351]”, the “gcPBM binding intensity (ln)” value amounted to 11.4 ± 0.99.

Turning to “ACATATATATAATATATATATCATCATATTTTCTTA [CACACA_negctrl_site853]”, the “gcPBM binding intensity (ln)” value came out at 9.76 ± 0.085.

As for “TGTGTGTGTATATGTGTGCACATATAAAATAGAAGA [GTGCAC_site9714]”, the “gcPBM binding intensity (ln)” value came out at 10.8 ± 0.6.

Consider “ATATGTGTTATTTATACATGCAGAAGAATATCTATT [TGCATGCA_site828]”, for which the “gcPBM binding intensity (ln)” value worked out at 10 ± 0.13.

Turning to “ACATATACAAAACACACACACAACGTTTTAATAAAT [CACACA_site1979]”, the “gcPBM binding intensity (ln)” value was determined as 10.2 ± 0.21.

For “GTATATAAAAATTCATGTACATATTATTATTTTTAA [XGTACX_site658]”, the “gcPBM binding intensity (ln)” value worked out at 11.3 ± 0.71.

Take “AGAGAATAAATATAAAGTACATATATAAATATATAT [XGTACX_site5055]”: the “gcPBM binding intensity (ln)” value was 11.2 ± 0.9.

For the sequence “TTGAGTTGTATAAAAAGTACAAGGTTTTAACTAAAT [XGTACX_site1447]”, the “gcPBM binding intensity (ln)” value stood at 11.4 ± 0.59.

“TTATAATATTCATAAGGTACAGTTTATATATGTTAT [XGTACX_site8442]”: the “gcPBM binding intensity (ln)” value amounted to 10.9 ± 0.58.

On to “TATATGTAAATGGACACACACATATATATATATATA [CACACA_site3659]”, for which the “gcPBM binding intensity (ln)” value was 10.8 ± 0.59.

Turning to “TATGACCTTAGTAATTGTACACAAACATATTAATAT [XGTACX_site3340]”, the “gcPBM binding intensity (ln)” value came out at 11.3 ± 0.7.

Consider “GAGTATATGATATATATATATATATAAAAAAAAAAA [GTGCAC_negctrl_site99]”, for which the “gcPBM binding intensity (ln)” value was determined as 9.59 ± 0.3.

As for “AATAATCATGATCAAAGTACGTATGATTAAAAAAAA [XGTACX_site4916]”, the “gcPBM binding intensity (ln)” value stood at 10.9 ± 0.5.

As for “ATATATATATATATATGTACATATTATTATTTTGAT [XGTACX_site4752]”, the “gcPBM binding intensity (ln)” value stood at 11.2 ± 0.73.

With “ATATATATAATAAACACACACATATACATAGATGTA [CACACA_site5841]”, the “gcPBM binding intensity (ln)” value amounted to 9.805 ± 0.007.

For “ATATAGATTCGACACACACACAAAAAAAAAAAAAAA [CACACA_site7677]”, the “gcPBM binding intensity (ln)” value came to 10 ± 0.47.

Regarding “GTACCTATTTCATACACACACACACGCAAACAAACA [CACACA_site6590]”, the “gcPBM binding intensity (ln)” value came out at 10.7 ± 0.45.

As to “TGGTATATTATTTTTTGTACACATAAATGAAACATT [XGTACX_site5345]”, the “gcPBM binding intensity (ln)” value turned out to be 11.3 ± 0.79.
